Like-named read-outs stand apart in the source and are kept apart here.
Tests used:
[1] = molecular target: T1, human 4-1BB on the surface of HEK293-Hu4-1BB cells (human, UniProt Q07011 24-255); assay: cell-based or functional assay
[2] = molecular target: T1, human 4-1BB on the surface of …; assay: FACS on HEK293 cells highly expressing human 4-1BB
From the text: (§1) HEK293-Hu4-1BB cells were obtained by transient transfection of HEK293 cells (ATCC CRL-1573) with a gene expressing human 4-1BB protein or polypeptide (CD137 cDNA ORF Clone, Human, C-OFPSpark tag; purchased from Sino Biological, Cat #HG10041-ACR). The cell culture medium was DMEM (Gibco, Cat #11995065) containing 10% fetal bovine serum. The experimental medium was sterile PBS (phosphate-buffered saline, pH 7.40) containing 2% fetal bovine serum. HEK293-Hu4-1BB cells were washed with the experimental medium twice and seeded into a 96-well U-bottom plate at 1×10⁵ HEK293-Hu4-1BB cells per well. Different concentrations of the anti-4-1BB single-domain antibody VHH-Fc samples to be tested were added. The cells were incubated at 4° C. for 1 h and then washed with the experimental medium twice. Then the goat anti-human IgG (H+L) Alexa Fluor 488 antibody (Thermo, Cat #A11013) was added. After two washes, fluorescence signal values were measured using a flow cytometer. Urelumab was used as a positive control.
A comparison of the antigen-binding activity of C5_V2 and C5_V2-YTI was made using a FACS assay as described in Example 5.

[3] = molecular target: T1, human 4-1BB on the surface of …; assay: FACS on HEK293 cells highly expressing human 4-1BB; remark: listed apart in the source
From the text: as §1
The antigen-binding activity of the humanized antibodies was measured using a FACS assay as described in Example 2.

[4] = molecular target: T1, human 4-1BB on the surface of …; assay: cell-based or functional assay; remark: listed apart in the source

T1 sequence (Q07011 24-255): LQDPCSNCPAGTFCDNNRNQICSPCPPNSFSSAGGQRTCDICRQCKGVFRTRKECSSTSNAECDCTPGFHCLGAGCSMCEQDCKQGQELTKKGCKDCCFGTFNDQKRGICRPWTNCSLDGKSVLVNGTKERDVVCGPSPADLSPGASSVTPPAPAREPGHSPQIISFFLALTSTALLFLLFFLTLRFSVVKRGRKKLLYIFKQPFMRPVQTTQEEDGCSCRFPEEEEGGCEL

B1: C5_V2 linked to human IgG1-Fc (SEQ ID NO: 10) (Fc fusion)
chain: QVQLVESGGGLVQPGGSLRLSCSASGFTFSSYAMSWVRQAPGKGLEWVSDINSGGESTFYEDSVKGRFTISRDNAKNTLYLQMNSLRAEDTAVYYCAKHPLTFTIATMNDYDYWGQGTLVTVSS[human IgG1 Fc with changes not listed]
notes: Humanized VHH-Fc fusion
Factor of variation in Emax, FcγRIIb-mediated activation of HEK293-4-1BB cells [1]: 2.02 fold | Factor of variation in Emax, activation of HEK293-4-1BB cells [1]: 1.37 fold | EC50 [2]: 0.98 nM | Maximal fluorescence value [2]: 53700 | EC50 [3]: 1.62 nM | Maximal fluorescence value [3]: 1030

B2: C5-Fc (Fc fusion)
chain: QVQLVESGGGLVQPGGSLRLSCSASGFTFSSYAMSWVRQAPGKGLEWVSDINSGGESTFYEDSVKGRFTISRDNAKNTLYLQMNSLKPEDTAVYYCAKHPLTFTIATMNDYDYWGQGTQVTVSS[human IgG1 Fc with changes not listed]
notes: also called anti-4-1BB single-domain antibody C5 (VHH-Fc)
EC50, 4-1BB/NF-κB luciferase reporter, FcγRIIb cross-linking [4]: ~0.814 nM | Emax, 4-1BB/NF-κB luciferase reporter, FcγRIIb cross-linking [4]: 10 relative to antibody-free group | Emax, 4-1BB/NF-κB luciferase reporter, no FcγRIIb cross-linking [4]: 2.26 relative to antibody-free group | EC50 [3]: 3.2 nM

B3: C5_V2-YTI linked to human IgG1-Fc (SEQ ID NO: 10) (Fc fusion)
chain: QVQLVESGGGLVQPGGSLRLSCSASGFTFSSYAMSWVRQAPGKGLEWVSDINSGGESTFYEDSVKGRFTISRDNAKNTLYLQMNSLRAEDTAVYYCAKHPLTYTIATMNDYDYWGQGTLVTVSS[human IgG1 Fc with changes not listed]
notes: C5_V2 with F99Y (Kabat) in CDR3, as VHH-Fc fusion
EC50 [2]: 0.62 nM | Maximal fluorescence value [2]: 53800

B4: C5_V3 linked to human IgG1-Fc (SEQ ID NO: 10) (Fc fusion)
chain: QVQLVESGGGLVQPGGSLRLSCSASGFTFSSYAMSWVRQAPGKGLEWVSDINSGGESTFYEDSVKGRFTISRDNAKNTLYLQMNSLKPEDTAVYYCAKHPLTFTIATMNDYDYWGQGTLVTVSS[human IgG1 Fc with changes not listed]
notes: Humanized VHH-Fc fusion
EC50 [3]: 1.65 nM

B5: C5_V1 linked to human IgG1-Fc (SEQ ID NO: 10) (Fc fusion)
chain: QVQLVESGGGLVQPGGSLRLSCSASGFTFSSYAMSWVRQAPGKGLEWVSDINSGGESTFYEDSVKGRFTISRDNAKNTLYLQMNSLRAEDTAVYYCARHPLTFTIATMNDYDYWGQGTLVTVSS[human IgG1 Fc with changes not listed]
notes: Humanized VHH-Fc fusion
Factor of variation in Emax, FcγRIIb-mediated activation of HEK293-4-1BB cells [1]: 2.28 fold | Factor of variation in Emax, activation of HEK293-4-1BB cells [1]: 1.14 fold | EC50 [3]: 3.79 nM | Maximal fluorescence value [3]: 1040

— patent publication US20250026842A1 (JIANGSU HENGRUI PHARMACEUTICALS, published 2025)
